In all, about 18,000 sequences were measured (“TetR repression strength (sort-seq, GFP reporter)”: median about 0.23, highest 2% from about 0.68 on). This is one part of the list.
molecular target: TetR (class B, Tn10) (UniProt P04483); experiment: TetR repression strength (sort-seq, GFP reporter) (relative to tetO2 = 1); higher = stronger repression; settings: E. coli
In short: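 In LB with 50 µg/mL chloramphenicol, E. coli SIG10-MAX holding a low-copy library with eight randomized operator positions between a constitutive promoter and sfGFP, plus constitutive TetR, grew for 5 h at 37 °C. FACS then sorted 10^6 cells into 13 fluorescence bins for Illumina sequencing of each bin. Repression strength equals the top bin index plus one less the read-weighted mean bin, normalized to the unaltered operator. Values from three independent transformations were averaged when reads were ≥30 in every replicate and the CV was ≤0.5.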

Chain of UniProt P04483 (P04483 whole entry): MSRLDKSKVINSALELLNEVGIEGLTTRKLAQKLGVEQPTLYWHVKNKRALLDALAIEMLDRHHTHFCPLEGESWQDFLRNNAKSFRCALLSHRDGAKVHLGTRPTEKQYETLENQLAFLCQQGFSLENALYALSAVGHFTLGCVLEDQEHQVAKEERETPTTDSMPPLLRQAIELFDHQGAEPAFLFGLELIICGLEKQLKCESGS

Sequence | TetR repression strength
TCCCACATAGTTTAGGAGA | 0.26
TCCCGTGCAGTATTAGAGA | 0.0608
TCCCCTTGAGTCCTAGAGA | 0.489
TCCCGCAGAGTGACGGAGA | 0.129
TCCCGAGGAGTCCACGAGA | 0.394
TCCCGGTTAGTGGTTGAGA | 0.192
TCCCCGGTAGTAGTAGAGA | 0.198
TCCCCATAAGTTAGGGAGA | 0.145
TCCCGTAGAGTGTGGGAGA | 0.113
TCCCCGATAGTCTGTGAGA | 0.301
TCCCGTATAGTATGGGAGA | 0.0193
TCCCATTCAGTATCGGAGA | 0.159
TCCCCGCGAGTCGATGAGA | 0.0756
TCCCGCGTAGTTGAGGAGA | 0.161
TCCCCGTGAGTGCGAGAGA | 0.177
TCCCGGATAGTTCTTGAGA | 0.0968
TCCCTATCAGTAATAGAGA | 0.878
TCCCCTCAAGTTTACGAGA | 0.233
TCCCCTGTAGTTTAGGAGA | 0.13
TCCCGCTCAGTGTACGAGA | 0.215
TCCCAGGTAGTTCCGGAGA | 0.18
TCCCTGCCAGTGATGGAGA | 0.257
TCCCGGGAAGTGATAGAGA | 0.537
TCCCGTGTAGTCAGGGAGA | 0.0908
TCCCGCTTAGTTAGTGAGA | 0.383
TCCCCTCAAGTTGACGAGA | 0.261

Sequence | TetR repression strength
TCCCGTCTAGTGACAGAGA | 0.369
TCCCAGACAGTGAGTGAGA | 0.0202
TCCCACATAGTACTTGAGA | 0.257
TCCCGTTAAGTGCAAGAGA | 0.418
TCCCGAAAAGTCCGGGAGA | 0.185
TCCCCCAGAGTCGGCGAGA | 0.274
TCCCTAACAGTTGCCGAGA | 0.353
TCCCGCGCAGTGTTAGAGA | 0.197
TCCCTCATAGTGATTGAGA | 0.325
TCCCACAAAGTTGGCGAGA | 0.312
TCCCGTCAAGTTTGGGAGA | 0.223
TCCCAAGAAGTGAAGGAGA | 0.262
TCCCTCTGAGTAAGAGAGA | 0.0346
TCCCCGGGAGTGATGGAGA | 0.184
TCCCCTATAGTGTGTGAGA | 0.198
TCCCAGGTAGTGGGTGAGA | 0.269
TCCCGAGTAGTTCACGAGA | 0.415
TCCCTACGAGTGGTTGAGA | 0.304
TCCCGAAGAGTGTAGGAGA | 0.154
TCCCGAGAAGTCGCGGAGA | 0.0355
TCCCTGTAAGTGTCGGAGA | 0.049
TCCCAGCCAGTGGGTGAGA | 0.0351
TCCCGCTAAGTACAAGAGA | 0.228
TCCCTGAGAGTTAGCGAGA | 0.0305
TCCCGCATAGTGCGGGAGA | 0.326
TCCCATATAGTGGGCGAGA | 0.306

Sequence | TetR repression strength
TCCCCAACAGTGCCCGAGA | 0.441
TCCCAGTGAGTTACAGAGA | 0.146
TCCCGACCAGTATATGAGA | 0.1
TCCCTTGTAGTTAGAGAGA | 0.154
TCCCGGTAAGTTAGCGAGA | 0.0236
TCCCATCAAGTGTTGGAGA | 0.202
TCCCGTCAAGTCGAGGAGA | 0.131
TCCCAAGCAGTGTTAGAGA | 0.217
TCCCGAGGAGTAGGGGAGA | 0.231
TCCCCGAGAGTAGGCGAGA | 0.221
TCCCGAGTAGTTAGAGAGA | 0.0482
TCCCTAAGAGTCGTGGAGA | 0.141
TCCCGTACAGTGAGGGAGA | 0.104
TCCCAAGGAGTAGGCGAGA | 0.124
TCCCTAGCAGTTTCGGAGA | 0.238
TCCCAGAGAGTAGCGGAGA | 0.24
TCCCTTATAGTGGCGGAGA | 0.22
TCCCTGGTAGTTAGAGAGA | 0.821
TCCCCTTCAGTTTGAGAGA | 0.298
TCCCGACAAGTTATCGAGA | 0.226
TCCCATCAAGTGGTCGAGA | 0.311
TCCCGTGTAGTCCTTGAGA | 0.331
TCCCAACCAGTCTGAGAGA | 0.348
TCCCCTTGAGTTGACGAGA | 0.302
TCCCGCTCAGTCGGAGAGA | 0.242
TCCCGTTAAGTAGAGGAGA | 0.232

Sequence | TetR repression strength
TCCCTGCAAGTAGGGGAGA | 0.0817
TCCCCCTCAGTAACCGAGA | 0.428
TCCCCGACAGTAGTTGAGA | 0.411
TCCCGCGCAGTGACGGAGA | 0
TCCCAAGCAGTACTAGAGA | 0.36
TCCCAATAAGTATGGGAGA | 0.415
TCCCCATAAGTGCGTGAGA | 0.0842
TCCCGTAGAGTATACGAGA | 0.126
TCCCAGTCAGTTGCAGAGA | 0.343
TCCCAAGAAGTGCTCGAGA | 0.196
TCCCATCTAGTCTATGAGA | 0.122
TCCCTCAGAGTCGGTGAGA | 0.547
TCCCTGCTAGTAGGAGAGA | 0.415
TCCCTTTAAGTGCACGAGA | 0.207
TCCCGGTTAGTTTTAGAGA | 0.0155
TCCCGCCAAGTGTCGGAGA | 0.00964
TCCCGGCCAGTCAAGGAGA | 0.328
TCCCCATCAGTTCCGGAGA | 0.207
TCCCAGGTAGTTTGCGAGA | 0.192
TCCCCGTGAGTGCGGGAGA | 0.207
TCCCTGTAAGTGTGTGAGA | 0.214
TCCCCTTCAGTGTATGAGA | 0.218
TCCCTGAGAGTATCGGAGA | 0.0942
TCCCTTGTAGTTCGGGAGA | 0.19
